Data as given in the antibiotic and cytotoxicity screens of Wong et al. (2023).
This is one part of the list.

Assays:
HSkMC = human skeletal muscle cells; experiment: cytotoxicity call (relative viability < 0.9); conditions: 10 µM
S. aureus RN4220 = experiment: growth inhibition call (relative growth <= 0.2); conditions: 50 µM

C[C@@H]1CN([C@H](C)CO)S(=O)(=O)c2ccc(C#C[C@@H](C)O)cc2O[C@H]1CN(C)C(=O)c1ccccc1
cytotoxicity call (HSkMC): inactive
growth inhibition call (S. aureus RN4220): inactive

Cc1noc(C)c1S(=O)(=O)N(C)C[C@@H]1Oc2ccc(NS(C)(=O)=O)cc2CC(=O)N([C@H](C)CO)C[C@@H]1C
cytotoxicity call (HSkMC): inactive
growth inhibition call (S. aureus RN4220): inactive

C[C@@H]1CN([C@H](C)CO)C(=O)c2cccc(NC(=O)Nc3ccc(C(F)(F)F)cc3)c2O[C@@H]1CN(C)C(=O)Nc1ccc(C(F)(F)F)cc1
cytotoxicity call (HSkMC): active
growth inhibition call (S. aureus RN4220): inactive

C[C@H]1CCCCO[C@@H](CN(C)S(=O)(=O)c2cccs2)[C@@H](C)CN([C@@H](C)CO)C(=O)c2cc(NS(=O)(=O)c3ccc(Cl)cc3)ccc2O1
cytotoxicity call (HSkMC): inactive
growth inhibition call (S. aureus RN4220): inactive

C[C@@H]1CCCCO[C@@H](CN(C)S(=O)(=O)c2ccc(F)cc2)[C@@H](C)CN([C@H](C)CO)C(=O)c2cc(NC(=O)Nc3ccc4c(c3)OCO4)ccc2O1
cytotoxicity call (HSkMC): inactive
growth inhibition call (S. aureus RN4220): inactive

Cc1ccc(S(=O)(=O)N(C)C[C@H]2OCCCC[C@@H](C)Oc3ccc(NC(=O)Nc4ccc(C(F)(F)F)cc4)cc3C(=O)N([C@H](C)CO)C[C@@H]2C)cc1
cytotoxicity call (HSkMC): inactive
growth inhibition call (S. aureus RN4220): inactive

C[C@H]1CCCCO[C@@H](CN(C)CC2CC2)[C@@H](C)CN([C@@H](C)CO)C(=O)c2cc(NC(=O)Nc3ccc(F)cc3)ccc2O1
cytotoxicity call (HSkMC): inactive
growth inhibition call (S. aureus RN4220): inactive

COCC(=O)N1C[C@]2(CCN(CC2)C(=O)CN2CCOCC2)c2c([nH]c3cc(ccc23)OC)[C@@H]1CO
cytotoxicity call (HSkMC): inactive
growth inhibition call (S. aureus RN4220): inactive

COc1ccc(NC(=O)Nc2ccc3c(c2)C(=O)N([C@H](C)CO)C[C@H](C)[C@@H](CN(C)Cc2ccc(Cl)c(Cl)c2)OCCCC[C@@H](C)O3)cc1
cytotoxicity call (HSkMC): inactive
growth inhibition call (S. aureus RN4220): inactive

C[C@@H]1CN([C@H](C)CO)C(=O)c2cccc(NC(=O)Nc3ccc(C(F)(F)F)cc3)c2O[C@@H]1CN(C)C(=O)Nc1ccc2c(c1)OCO2
cytotoxicity call (HSkMC): inactive
growth inhibition call (S. aureus RN4220): inactive

C[C@@H]1CN([C@@H](C)CO)C(=O)c2cc(NS(=O)(=O)c3cccs3)ccc2O[C@@H](C)CCCCO[C@@H]1CN(C)CC1CCCCC1
cytotoxicity call (HSkMC): inactive
growth inhibition call (S. aureus RN4220): inactive

C[C@@H]1CN([C@H](C)CO)C(=O)c2cccc(NS(C)(=O)=O)c2O[C@@H]1CN(C)S(=O)(=O)c1cccs1
cytotoxicity call (HSkMC): inactive
growth inhibition call (S. aureus RN4220): inactive

C[C@@H]1CN([C@@H](C)CO)C(=O)c2cc(NC(=O)CCCN(C)C)ccc2O[C@H]1CN(C)Cc1ccncc1
cytotoxicity call (HSkMC): inactive
growth inhibition call (S. aureus RN4220): inactive

C[C@H]1CN([C@@H](C)CO)S(=O)(=O)c2ccc(C#Cc3ccc(F)cc3)cc2O[C@@H]1CN(C)S(=O)(=O)c1ccc(F)cc1
cytotoxicity call (HSkMC): inactive
growth inhibition call (S. aureus RN4220): inactive

COc1ccc(CN(C)C[C@@H]2Oc3ccc(NS(=O)(=O)c4cn(C)cn4)cc3C(=O)N([C@@H](C)CO)C[C@@H]2C)cc1
cytotoxicity call (HSkMC): inactive
growth inhibition call (S. aureus RN4220): inactive

C[C@@H]1CN([C@H](C)CO)S(=O)(=O)c2ccc(-c3ccc(C(=O)N(C)C)cc3)cc2O[C@H]1CN(C)C(=O)Cc1ccccn1
cytotoxicity call (HSkMC): inactive
growth inhibition call (S. aureus RN4220): inactive

COCC#Cc1ccc2c(c1)O[C@H](CN(C)C(=O)Nc1ccccc1F)[C@H](C)CN([C@@H](C)CO)S2(=O)=O
cytotoxicity call (HSkMC): inactive
growth inhibition call (S. aureus RN4220): inactive

C[C@H]1CN([C@@H](C)CO)C(=O)c2cc(NS(=O)(=O)c3ccccc3)ccc2O[C@@H]1CN(C)Cc1ccncc1
cytotoxicity call (HSkMC): inactive
growth inhibition call (S. aureus RN4220): inactive

COc1ccccc1S(=O)(=O)N[C@H]1CC[C@H](CCNC(=O)C2CC2)O[C@@H]1CO
cytotoxicity call (HSkMC): inactive
growth inhibition call (S. aureus RN4220): inactive

C[C@@H]1CCCCO[C@@H](CN(C)Cc2ccc(C(=O)Nc3ccccc3N)cc2)[C@@H](C)CN([C@H](C)CO)C(=O)c2cc(NC(=O)Cc3ccccc3)ccc2O1
cytotoxicity call (HSkMC): inactive
growth inhibition call (S. aureus RN4220): inactive

C[C@@H]1CCCCO[C@@H](CN(C)Cc2ccc(C(F)(F)F)cc2)[C@H](C)CN([C@H](C)CO)C(=O)c2cc(NC(=O)c3ccccc3)ccc2O1
cytotoxicity call (HSkMC): inactive
growth inhibition call (S. aureus RN4220): inactive

C[C@@H]1CCCCO[C@H](CN(C)Cc2ccc3c(c2)OCO3)[C@@H](C)CN([C@H](C)CO)C(=O)c2cc(NC(=O)Nc3ccccc3)ccc2O1
cytotoxicity call (HSkMC): inactive
growth inhibition call (S. aureus RN4220): inactive

COc1ccc(S(=O)(=O)N(C)C[C@H]2Oc3ccc(NC(=O)Cc4ccccc4)cc3C(=O)N([C@H](C)CO)C[C@@H]2C)cc1
cytotoxicity call (HSkMC): active
growth inhibition call (S. aureus RN4220): inactive

O=C(NCCN1CCOCC1)[C@@H]1c2ccccc2C(=O)N(C2Cc3ccccc3C2)[C@H]1c1ccc(CO)cc1
cytotoxicity call (HSkMC): inactive
growth inhibition call (S. aureus RN4220): inactive

C[C@H](CO)N1C[C@H](C)[C@H](CN(C)S(=O)(=O)c2ccccc2)Oc2c(NC(=O)c3cnccn3)cccc2C1=O
cytotoxicity call (HSkMC): inactive
growth inhibition call (S. aureus RN4220): inactive
